Experimental data taken from PubChem BioAssay AID485364 (National Center for Advancing Translational Sciences (NCATS), 2010).
Hit rate of the full screen: of about 360,000 compounds, about 11,000 (3.1%) were called active. The shares of active, inactive and inconclusive entries below differ from those in the screen. Calls come from the whole dose curve; as a rule, active = well fitted inhibition curve with a large enough effect; inconclusive = small, poorly fitted or top-dose-only effect; inactive = no such curve, though single readings can be large or run the other way. No potency is given beside an inconclusive call; the fits are too rough.

What follows are compounds tested against Schistosoma mansoni thioredoxin glutathione reductase (TGR) (UniProt Q962Y6) (assay: qHTS Assay for the Inhibitors of Schistosoma Mansoni Peroxiredoxins). Settings: purified TGR, DTNB reduction, TNB absorbance 405 nm; series mostly up to 114 µM.
How it was run: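 TGR 20 nM + NADPH 100 uM (dispensed conc.), cpd preinc 15 min RT; start with NADPH (500 uM addition) then DTNB (15 mM addition). Kinetic TNB absorbance, 405 nm filter. Four-parameter Hill fit across titration.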
Note: nearly all actives have a fitted effect of over 60% in size.
Potency is the fitted concentration of half-maximal effect; tags give direction and shape of the fitted curve.

Compound	Potency
Cc1ccc2cccc(NC(=O)c3ccc(Br)o3)c2n1	inactive
CC(=O)Nc1ccc(S(=O)(=O)NCCSCc2ccco2)cc1	inconclusive [inhibitor, partial curve, poor fit]
COc1ccc(C(=O)Nc2ccc(N3CCCC3)cc2)cc1Br	inconclusive [inhibitor, single point]
COc1cccc(C(C[N+](=O)[O-])c2c(C)[nH]n(-c3ccccc3)c2=O)c1 (stereo not given)	active: 35.5 µM
O=S(=O)(Nc1ccc(F)cc1)c1ccc(NC(=S)Nc2ccccc2)cc1	inconclusive [inhibitor, partial curve]
COc1cc(Cl)c(NS(=O)(=O)c2ccc(-c3ccc(=O)[nH]n3)o2)c(OC)c1	inconclusive [inhibitor, partial curve]
CCOCc1cnc(C)nc1NCC(=O)c1c(C)n(C)c2ccc(OC)cc12	inconclusive [inhibitor, single point]
CCOC(=O)C1CCCN(C2CC(=O)N(c3ccc(C(C)C)cc3)C2=O)C1 (stereo not given)	inconclusive [inhibitor, partial curve]
Cc1cc2nc(Sc3c([N+](=O)[O-])nc(C)n3Cc3ccccc3)[nH]c2cc1C	active: 17.8 µM
C/C(=N/NS(=O)(=O)c1ccc(Br)cc1)c1c[nH]c2ccccc12	active: 39.8 µM
CCc1ccc(NC(=O)C(=O)NCC(c2cccnc2)N2CCN(C)CC2)cc1 (stereo not given)	inconclusive [inhibitor, partial curve]
O=C1CC(SCCc2nc3ccccc3[nH]2)C(=O)N1c1ccc(F)cc1 (stereo not given)	inconclusive [inhibitor, partial curve]
O=C(Nc1ccc2oc(-c3cccnc3)nc2c1)c1ccc(-c2ccccc2)o1	active: 35.5 µM
CC1(C)CC(=O)C(C=NCCN2CCN(CC(=O)Nc3ccccc3)CC2)=C(O)C1	inconclusive [inhibitor, partial curve]
CCc1ccc(CNC(=O)c2ccc3nc(C(C)C)oc3c2)cc1	inactive
Cc1ccc(/C=N/NC(=O)Cn2nc(C)c(Br)c2C)o1	inconclusive [inhibitor, full curve, poor fit]
COc1ccc(S(=O)(=O)NCc2ccco2)c2ccccc12	inconclusive [inhibitor, partial curve]
CS(=O)(=O)N1CCN(c2ccc(NC(=S)NC(=O)c3ccc4c(c3)OCO4)cc2)CC1	inconclusive [inhibitor, full curve, poor fit]
Cc1cc(C(=O)NNC(=O)c2ccc(Cl)cc2)c2ccccc2n1	inactive
O=C(Oc1ccccc1N1C(=O)C2CCCCC2C1=O)c1ccc(Cl)cc1 (stereo not given)	inactive
COc1ccccc1C(=O)NC(=S)Nc1ccc(NC(=O)c2cccs2)cc1	inactive
COC(=O)/C=c1/s/c(=C(/C#N)C(=O)N2CCOCC2)n(-c2ccccc2)c1=O	inconclusive [inhibitor, single point]
COc1ccc(C(C#N)=C2C=CC(=NO)C=C2)cc1	inactive
O=C(COC(=O)C1=COCCO1)NC1CCCCCCC1	inconclusive [inhibitor, single point]
COc1ccc(/C=C2/C(=O)NC(=O)N(c3ccc(C)c(C)c3)C2=O)cc1CN1C(=O)c2ccccc2C1=O	inconclusive [inhibitor, partial curve, poor fit]

Compound	Potency
Cn1c(NC(=O)CCc2ccccc2)cc(=O)n(C)c1=O	inactive
Cc1ccc(NC(=O)c2cccc3cccnc23)cc1	inactive
Cc1nc2n(n1)C(c1ccccc1)C1=C(CC(c3ccco3)CC1=O)N2 (stereo not given)	active: 56.2 µM
Cn1c(CCC(=O)Nc2cc(S(C)(=O)=O)ccc2Cl)nc2cc(S(=O)(=O)N3CCOCC3)ccc21	inactive
Cc1cccc(C)c1N1C(=O)CC(N(O)c2ccccc2)C1=O (stereo not given)	active: 14.1 µM
CC(Nc1nc(-c2ccc3c(c2)NC(=O)CO3)cs1)c1ccccc1 (stereo not given)	inconclusive [inhibitor, full curve]
CCN(CC)c1ccc(C(=O)NNC(=O)c2cccn2C)cc1	inactive
Cn1cc(Br)c(C(=O)N2CCN(c3cccc(Cl)c3)CC2)n1	inconclusive [inhibitor, full curve]
CCCOc1ccc(N2C(=O)CC(N3CCN(CCN=CC4C(=O)CC(C)(C)CC4=O)CC3)C2=O)cc1 (stereo not given)	inconclusive [inhibitor, partial curve]
O=C(COC(=O)c1ccccc1Oc1ccccc1)NCc1ccco1	active: 15.8 µM
COC(=O)C1=C(c2ccc(OC)c(OC)c2)C[C@@H]2CC[C@H]1N2C(=O)NC1CC1	inactive
Cc1c(C(C)(C(=O)O)c2c(C)n(C)c3ccccc23)c2ccccc2n1C	inconclusive [inhibitor, partial curve]
Cc1ccc(/C=C/C(=O)O)cc1S(=O)(=O)Nc1ccccc1C(=O)O	inconclusive [inhibitor, partial curve]
CCOc1ccccc1C1CC(=O)NC(C)=C1C(=O)OCc1ccc(C)cc1 (stereo not given)	inactive
O=C(CN1CCCN(Cc2ccccc2Cl)S1(=O)=O)Nc1ccc2c(c1)OCCO2	inactive
Cc1ccc(OCCSc2nc3ccc(NC(=O)COc4ccc(F)cc4)cc3s2)cc1	inconclusive [inhibitor, single point]
Cn1c2ccccc2c(=O)c2ccc(C#Cc3ccc(N)cc3)cc21	inconclusive [inhibitor, partial curve]
Cc1ccc(S(=O)(=O)NCC(=O)OC(C(=O)c2ccccc2)c2ccccc2)cc1 (stereo not given)	inactive
O=C(NCc1nnc(SC/C=C/c2ccccc2)o1)c1ccco1	inconclusive [inhibitor, partial curve]
Cc1ccc(C(=O)Sc2cccccc2=O)cc1	inconclusive [inhibitor, full curve, poor fit]
COc1ccc(-c2ncc3ccccn23)cc1OC	inconclusive [inhibitor, partial curve]
COc1cc(CNc2ccc3[nH]c(=O)[nH]c3c2)cc(Br)c1OCC(=O)NC(C)(C)C	active: 12.6 µM
Cc1ccc(C)n1-c1ccncc1	inconclusive [inhibitor, full curve, poor fit]
CCOC(=O)/C=C/C(=O)Nc1ccc(S(=O)(=O)N(C)c2ccccc2)cc1	active: 39.8 µM
O=C(c1ccc(=O)oc1)N1CCCc2ccccc21	inconclusive [inhibitor, partial curve]

Compound	Potency
O=C(O)c1ccc2cccc(Cl)c2c1O	inconclusive [inhibitor, partial curve]
CCC(=O)Nc1ccc(Cl)c(NC(=S)NC(=O)c2ccco2)c1	inconclusive [inhibitor, partial curve]
CC1CCN(c2ccc(NC(=S)NC(=O)c3ccco3)cc2)CC1	inconclusive [inhibitor, single point]
S=C(NCc1ccccc1)Nc1cccc2cnccc12	inconclusive [inhibitor, partial curve]
O=C(Nc1nc(-c2ccco2)c(-c2ccco2)s1)c1ccc(F)cc1F	active: 10 µM
Cc1nnc2n1N=C(c1ccc(F)cc1F)CS2	inactive
O=C(CCSCCc1ccccn1)Nc1ccc(Cc2ccncc2)cc1	inconclusive [inhibitor, partial curve]
CCOc1ccc(CCNC(=O)c2ccc(CS(=O)(=O)Cc3ccccc3Cl)o2)cc1OCC	inactive
OCCNCCO	inconclusive [inhibitor, full curve]
Cc1cc(NC(=O)CSc2nnc(Nc3ccccc3C)s2)no1	inactive
Cc1ccc(S(=O)(=O)c2cc(O)ccc2O)cc1C	active: 3.98 µM
CC(=O)Nc1cc(C(=O)NCc2ccc(F)cc2)ccc1Sc1ccc(C)cc1	inactive
CC1(C)CC(=O)C(C=Nc2cccnc2)=C(O)C1	inactive
CC(=O)Nc1ccc(N/C=C2/CCCC2=O)cc1	inconclusive [inhibitor, partial curve]
COC(=O)c1sccc1-c1ccc(/C=N/OCc2c(Cl)cccc2Cl)o1	inactive
CN(C)c1ccc(CNC(=O)c2cc3ccccn3n2)cc1	inactive
CC(C)(C)OC(=O)N1CCC(c2c(C(=O)Nc3ccc4c(c3)OCCO4)cnn2-c2ccc(F)cc2)CC1	inactive
O=C(/C=C/c1ccco1)OCC1CCCN2CCCCC12 (stereo not given)	inconclusive [inhibitor, single point]
Cc1cccc(CNC(=O)Cc2csc3ccccc23)c1	inactive
CC(C)c1onc(C(=O)NC2CCCCC2)c1[N+](=O)[O-]	inconclusive [inhibitor, partial curve]
Cc1ccc(/C=C2\SC(=S)N(CCCC(=O)Nc3ccccc3C(=O)O)C2=O)cc1	inactive
O=C(CN1CCN(c2ncccn2)CC1)N1CCCc2c1c(=O)oc1ccc(O)cc21	inconclusive [inhibitor, partial curve]
O=C(c1ccc(-c2ccc([N+](=O)[O-])cc2)o1)N1CCCCC1	active: 44.7 µM
CC/C(=N\NC(=O)c1ccccc1O)c1c(O)n(C2CCCCC2)c(=O)[nH]c1=O	inconclusive [inhibitor, full curve]
Cc1ccc(N(C=NC#N)CC(=O)N2CCN(c3ccccc3)CC2)cc1	inconclusive [inhibitor, partial curve]
